Reference: PubChem BioAssay (NCATS)
The inconclusive results got no clear call from the source; some entries with a clear call stand among them for comparison. For part of these data: Potencies of inconclusive entries are left out as doubtful fits. Active and inactive are the calls of the source. Unless noted, calls follow the shape of the dose curve; as a rule, active = well fitted curve in the direction sought with a large enough effect; inconclusive = small, poorly fitted or top-dose-only effect, or another doubt; inactive = no such curve, though single readings can be large; an effect the other way counts as inactive or inconclusive.

Legend:
[1] = Primary qHTS for small molecule stabilizers of the endoplasmic reticulum resident proteome: Secreted ER Calcium Modulated Protein (SERCaMP) assay (AID 1508630); conditions: SH-SY5Y GLuc-SERCaMP (Gaussia luciferase released on ER calcium loss) secretion, thapsigargin, luminescence; series mostly up to 38.4 µM
Outline: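 The SH-SY5Y reporter protocol was run at 3 concentrations up to 38.3 uM (primary) or 11 concentrations (follow-up): 16 h compound, 100 nM thapsigargin for 4 h, then extracellular luciferase luminescence.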

[2] = target: Cytochrome P450 2D6 (Homo sapiens) (UniProt P10635); test: Cytochrome P450 family 2 subfamily D member 6 (CYP2D6) small molecule antagonists: luciferase biochemical (cell-free) qHTS assay (AID 1645840; active = well fitted curve in the direction sought with a large enough effect in the repeat runs; inconclusive = weak or mixed curves; inactive = no such curve, though single readings can be large; an effect the other way counts as inactive or inconclusive; also: nearly all actives have a fitted effect of over 55% in size)
Outline: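 P450-Glo CYP2D6 system: proluciferin substrate converted by enzyme to luciferin, read by luminescence proportional to activity. Enzyme-substrate mix with compound 10 min at room temperature, then NADPH regeneration 1 h before detection reagent.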

[3] = target: Cytochrome P450 3A4 (Homo sapiens) (UniProt P08684); test: Cytochrome P450 family 3 subfamily A member 4 (CYP3A4) small molecule antagonists: luciferase qHTS assay (AID 1645841; active = well fitted curve in the direction sought with a large enough effect in the repeat runs; inconclusive = weak or mixed curves; inactive = no such curve, though single readings can be large; an effect the other way counts as inactive or inconclusive; also: nearly all actives have a fitted effect of over 45% in size)
Outline: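 P450-Glo CYP3A4 enzyme with proluciferin substrate preincubated 10 min with compound at room temperature, then NADPH regeneration 1 h. Luciferin detection reagent added for 20 min; luminescence recorded. Ketoconazole positive control.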

[4] = A High-Content qHTS Against Drug Library for the Identification of Small Molecules that Inhibit DYT1 Early Onset Primary Dystonia-Associated Cell Pathology (AID 1645839; calls by dose curve)
Outline: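 Cells were seeded and left for 24 h, then dosed with compound alongside tetracycline induction of mutant EGFP-TorsinA. They were incubated for 48 h, fixed in 4% paraformaldehyde, permeabilized and imaged for mislocalization (%pathology) and cell count.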
Potency is read from the fitted curve at half-maximal effect; tags tell the direction and shape of the fitted curve.

Sequence of UniProt P08684 (P08684 whole entry, looked up): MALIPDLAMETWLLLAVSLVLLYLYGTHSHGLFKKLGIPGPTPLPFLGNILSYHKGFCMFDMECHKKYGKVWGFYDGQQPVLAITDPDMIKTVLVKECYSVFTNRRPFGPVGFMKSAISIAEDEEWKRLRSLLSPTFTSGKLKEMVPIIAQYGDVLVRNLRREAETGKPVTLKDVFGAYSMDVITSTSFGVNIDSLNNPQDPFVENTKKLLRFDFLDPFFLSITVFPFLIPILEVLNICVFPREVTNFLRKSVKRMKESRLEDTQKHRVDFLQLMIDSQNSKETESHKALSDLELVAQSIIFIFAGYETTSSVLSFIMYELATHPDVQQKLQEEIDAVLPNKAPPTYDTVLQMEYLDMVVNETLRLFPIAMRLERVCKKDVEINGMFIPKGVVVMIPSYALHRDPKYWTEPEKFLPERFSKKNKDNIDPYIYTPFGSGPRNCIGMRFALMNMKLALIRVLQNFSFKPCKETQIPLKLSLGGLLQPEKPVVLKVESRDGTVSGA
Sequence of UniProt P10635 (P10635 whole entry, looked up): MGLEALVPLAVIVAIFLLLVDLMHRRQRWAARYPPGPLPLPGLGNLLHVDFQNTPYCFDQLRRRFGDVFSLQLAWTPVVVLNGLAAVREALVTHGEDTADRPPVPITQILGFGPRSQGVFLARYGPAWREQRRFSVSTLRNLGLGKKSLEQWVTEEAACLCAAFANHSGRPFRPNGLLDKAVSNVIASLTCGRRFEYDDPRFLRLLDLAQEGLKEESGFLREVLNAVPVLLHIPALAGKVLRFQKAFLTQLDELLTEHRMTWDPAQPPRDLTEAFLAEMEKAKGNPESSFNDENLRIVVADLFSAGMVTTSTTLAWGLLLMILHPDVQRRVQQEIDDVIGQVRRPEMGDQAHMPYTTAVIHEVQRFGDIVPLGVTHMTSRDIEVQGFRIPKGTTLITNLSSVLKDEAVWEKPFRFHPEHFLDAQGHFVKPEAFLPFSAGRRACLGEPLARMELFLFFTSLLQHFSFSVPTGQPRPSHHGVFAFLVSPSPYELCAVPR

SMILES | Potency [1] | Potency [2] | Potency [3] | Potency [4]
COC(=O)C1=C(C)NC(C)=C(C(=O)OCC(C)=O)C1c1ccccc1[N+](=O)[O-] (stereo not given) | inactive | inconclusive [inhibitor, single point] |  | 
CN(C)c1cc(NC(=O)CNC(C)(C)C)c(O)c2c1C[C@@H]1C[C@H]3[C@H](N(C)C)C(=O)C(C(N)=O)=C(O)[C@@]3(O)C(=O)C1=C2O | inconclusive [inhibitor, partial curve] | inconclusive [inhibitor, partial curve] |  | 
C#CCN(C)Cc1ccccc1 | inconclusive [inhibitor, partial curve, poor fit] | inactive |  | 
CCCCCCCCCCCC(=O)[O][Sn]([CH2]CCC)([CH2]CCC)[O]C(=O)CCCCCCCCCCC | inconclusive [inhibitor, single point] |  | inconclusive [falling, single point] | 
CCN1/C(=C/C=C/c2sc3ccccc3[n+]2CC)Sc2ccccc21 | inactive |  | inconclusive [falling, partial curve] | active: 11.2 µM
COc1ccc(C=CC(=O)Nc2ccccc2C(=O)O)cc1OC | inconclusive [inhibitor, full curve, poor fit] |  | inconclusive [falling, single point] | 
CC(=O)OC(C)OC(=O)C(C)c1ccc(-c2ccccc2)c(F)c1 (stereo not given) | inconclusive [inhibitor, partial curve, poor fit] | inconclusive [inhibitor, partial curve, poor fit] |  | 
